From PubChem BioAssay AID256 (DTP/NCI, 2004)
Inconclusive results and toxic doses are left out. Certain results were filed several times, with different values. The other results are left out here. An entry can have further records. The values listed for one entry differ, and nothing given here explains why; dose, time, organism, isomer or construct need not be as stated for each record.

Test system: CD2F1 mice, L1210 leukemia ip, survival T/C
Test: NCI In Vivo Anticancer Drug Screen. Data for tumor model L1210 Leukemia (intraperitoneal) in CD2F1 (CDF1) mice
Settings: vehicle: saline, higher = longer survival
Procedure, shortened: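 In this screen, transplantable tumors were grown in mice given either the compound or its vehicle. Results were expressed as the treated measurement relative to the control measurement.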

SMILES: COc1cccc2c1C(=O)c1c(O)c3c(c(O)c1C2=O)CC(O)(C(=O)CO)CC3OC1CC(N)C(O)C(C)O1 (stereo not drawn)
- T/C (endpoint: mean survival time, dose: 10.0 mg/kg/injection, schedule: Q04DX003 (ip)): 123 % of control and 150 % of control

SMILES: O=C1C=CN(C2OC(CO)C(O)C2O)C(=O)C1 (stereo not drawn)
- T/C (endpoint: median survival time, dose: 100.0 mg/kg/injection, schedule: Q01DX009 (ip)): 110 % of control and 180 % of control

SMILES: NCCCNCCCCNC(=O)C(O)NC(=O)CC(O)CCCCN=C(N)N (stereo not drawn)
- T/C (endpoint: median survival time, dose: 0.78 mg/kg/injection, schedule: Q01DX009 (ip)): 117 % of control and 150 % of control
